The other results are listed elsewhere or left out.
test system: PfAP2-HC AP2 domain (GST-tagged); experiment: gcPBM binding intensity (ln(normalized median fluorescence intensity)); higher = stronger DNA binding
Summary of the method: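 GST-tagged P. falciparum DNA-binding domains, expressed in E. coli (about 25 μg on average), were applied for 1 h to an Agilent 4 × 180k array of primer-extended double-stranded 36-bp intergenic genomic probes plus negative controls. The binding buffer was 1× PBS with 1% milk, 0.2 mg/ml BSA, 0.5% salmon testes DNA and 0.03% Triton X-100. Bound protein was detected with Alexa488 anti-GST antibody and scanned at 488 nm. Binding intensity is the highest Masliner-normalised natural-log median intensity across replicate spots of either probe orientation.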

Sequence	gcPBM binding intensity (ln)
TATATGAAGTACACAATACACACTAATTATATATAA [CACACA_site2608]	10.1
TTATGCCTTTAATATACACACTAATATTTTTTTGGC [CACACA_site5171]	9.63
TATGAAATTATAATTACACACAGGAAAATAAAATGT [CACACA_site1517]	9.89
ATATAATAATAAGGCACACAAATTAAAATATAAAAA [CACACA_site3710]	9.97
TTATGTTCTTTAAAACCACACACCCCCCAACCCCCC [CACACA_site8742]	9.67
TATATATGCATATACATACACACATAACACATACGT [CACACA_site3833]	10.1
AATGTTTTATTTTGAAGTACATTTAAGAATTTTTTA [XGTACX_site7814]	9.34
ATAAAAATTGATTATACACACGCGCCCAGACAACAA [CACACA_site5870]	10.2
ATATAGATGCATAATACACACATCAGATAATTAACC [CACACA_site6871]	9.96
ACAAGGTTTACGGGTAGTACAAATTTTTGAACATCT [XGTACX_site4739]	9.5
TTTTTTTTTTTTTTTTGTACTCATATCTACTATCAT [XGTACX_site274]	9.27
AGCCAAACCTTAAATTTAGCAATAAGTTTACAGGTC [CACACA_negctrl_site360]	9.5
ATTAAAAGTTTATACAAATAAAAAACAAAACAAAAA [CACACA_negctrl_site1030]	9.8
CATTATGTCGTAAATACACACATACATATACATACA [CACACA_site8383]	9.87
TTTTGACCATATCTGTTGCACTTTTGTGCTATTCGA	9.62
AAGGATCACAGACAAACACACATATATATATATATA [CACACA_site4469]	9.86
AAATAATTTGTTGACACACACACACCCATACAGATA [CACACA_site5291]	10.4
TAAATTTTTTCCTCCTGTACTTATTATATTTTTTTG [XGTACX_site1572]	9.73
ATTAATTCGTTTTGTACACACATAATGAGTAATTTA [CACACA_site7118]	9.74
ATATAATATTTATATGCACACTTTTCTATATATAAG [CACACA_site6100]	9.66
TAAAATATTATTTATTTACACACCAATCTTCTTTTC [CACACA_site9320]	9.71
TCGTATTTAAAATGTAGTACATAATTTGAAAAATAA [XGTACX_site5832]	9.54
TAATGGTTATCACTAACATGCAGTAATATTATATAG [TGCATGCA_site176]	9.58

Sequence	gcPBM binding intensity (ln)
TTTTTTCTTTTTTTTTGTACATATAATATTTATGTT [XGTACX_site302]	9.62
AAAAGAAAAAAAAAAAAAAAAAAAATTAAAATATAA [CACACA_negctrl_site17]	9.17
ATATATATATGTATATGTACATATATATGGTAACTC [XGTACX_site681]	9.9
AAAAAAAAAAAACACACACACAAATACAAATGGTAA [CACACA_site1720]	10.9
AAGTTATTGATATATACACACAAATATAAATAATAT [CACACA_site6695]	9.89
AATACATATCAAAGCTGTACAAAGTAAATTTTACTT [XGTACX_site3525]	9.77
TTCAATAGGTATAATTGTACTTAATAATATATTGTT [XGTACX_site8363]	9.58
CTTAGGTTAAAAGTGTGTACATAAAAACATATATAA [XGTACX_site2213]	9.8
TACTATTATAAATATGTGCACTTCAATAATATACTA	9.62
ATAAGAAAAAGACACACACACAAAAAAAAAAAAAAA [CACACA_site2828]	10.2
TAAATAAATTATTTTCGTACTTATTTATTTTAATTA [XGTACX_site283]	9.56
TTAAAGTAGAGAAAATGTACATTTTATTAACACAAT [XGTACX_site6369]	9.83
AAATAAAAAACAGTGGCACACATTATGTATCCACCT [CACACA_site3756]	9.79
AAAAAAAAAATATACACACACATATAAATATAAATA [CACACA_site7574]	10.2
ATACATTCAATGAAATGTACGTTTATTTACAGAAGA [XGTACX_site2999]	9.6
TACAGATACAGATACACACACACACCGAAATAAATA [CACACA_site4865]	11
AAAATAAAAAGAAAAAGAAAAAAGGGGGGGTAGGGG [CACACA_negctrl_site1048]	10.1
TAAATTCCTACATACGCATGTACATTAAAATTTTAA [TGCATGCA_site215]	9.67
CTTTAAGTTATATGAAGTACAATTTAAAAAAATGAA [XGTACX_site358]	9.48
ACATATAATATATAATGTACAAAATTGTTAACAATA [XGTACX_site3798]	9.75
GAAAGGATATATATATATATATATATAATACATTTC [GTGCAC_negctrl_site677]	9.63
TATATATACATACATACACACATATATATATATATT [CACACA_site4110]	9.94
AATTAAAAAAAATACACACACACATACACATATATA [CACACA_site3298]	10.9

Sequence	gcPBM binding intensity (ln)
CGTATTTATATAATTACACACCATATTATAATTATT [CACACA_site3760]	9.75
CCAAAAAAAAAAAAAAGTACATAAAAACAAGAGAAT [XGTACX_site3037]	9.68
AAGAGAAAAATATATACACACACATAAATATATACA [CACACA_site8573]	10.4
AAGGGGTAAAGAAAAACACACAAAAAATAAAAATAT [CACACA_site361]	9.76
GATGAAAATAGAAATACACACTAAAAAATAAAATTA [CACACA_site4764]	9.77
TGCATACTTTTGTAAGTGCATAAAATCGTACCATGC	9.33
GAAATAATTCGATGTGCATGTAACGTTTCCCCAAAG [TGCATGCA_site122]	9.73
TTATTTTTCCGGAATAGTACATAGACGCAGATATAA [XGTACX_site6356]	9.49
TAGAAGCATGGACACACACACATACATACCCATACA [CACACA_site4916]	11.2
CTCAATGTTTGCGATACATGCAAAAATTTTTAGAAT [TGCATGCA_site165]	9.59
TACATTTCATTGTAATCATAAAAAATAAAGAAAAAA [XGTACX_negctrl_site542]	9.4
TCTATATCTTTCAACACACAAATTTTTTTTTCCATC [CACACA_site4238]	9.72
AAAAAAAAAAAAAAAGTGCACAGTCGTTTTAAAAAA [GTGCAC_site9848]	9.49
AAATCATTTAAGAACACACAAATATTTCCATTAAAT [CACACA_site6808]	9.67
ATTAACTATCATAACACACACAGTAGACATATTTTT [CACACA_site1822]	10.1
AAGATAATATTTTCTTGTACGCATGCACATACAAAT [XGTACX_site7181]	9.58
CTTTTCTCCCTCCATAGTACAATTATAAAAATATAT [XGTACX_site3090]	9.54
ATGCAAAGTTTATAAAGTACATAAGTCAAAATAAAA [XGTACX_site1441]	9.71
ATTATATACATATATATACACACGTAGTTTCTATTT [CACACA_site8697]	9.9
TATAAATAAATAGATACACACATATATATAAATACA [CACACA_site155]	10.1
ATATATATATATAAATGTACATTTTTCAATAGTTTT [XGTACX_site7449]	9.91
TACTTTTTATTTTCTTGTACTTAATTGTCCAGATTT [XGTACX_site4334]	9.65
CTTATTATTATATGGGTGCTCATATTTTTCTTTTTT [GTGCAC_site9723]	9.82

Sequence	gcPBM binding intensity (ln)
ACAAACATTAGGGAAGCATGCAATATTTTTTTACAT [TGCATGCA_site372]	9.65
TGTAGATTTTGTAACACACACATATATATACATATA [CACACA_site2405]	10
ATTCTTATTTAAAGGTGTACTCTTAAACAGATTTTA [XGTACX_site3526]	9.54
GTACACATATAGTAATAATTTTATTATATTTTTTTG [CACACA_negctrl_site843]	9.6
ATTTTAATATAAAATACACACTACTATTATAAATAT [CACACA_site4917]	9.64
AGATTTAAATTTATATGTACATAATATGGGCGTATA [XGTACX_site6631]	9.64
GGTCTTCTTAATATACTGCACTGTATACGTATATAA	9.8
TTCATAAAATGATATTGTACAAATAAATAATAGTAT [XGTACX_site819]	9.68
GCTTATATAAAAAGTTGTACAACCGAATCTTTTACA [XGTACX_site2119]	9.65
TAATATCATTTATGTAGTACTATAACAAGAACTATA [XGTACX_site3618]	9.27
AAAAAAAAAAAGCACACACACATATGAGTATATATA [CACACA_site4683]	10.3
AATGTAAAAGTAAACACACACATATATAAATACATA [CACACA_site5386]	10.2
TACACAAGCAGACACACACACATATATATATATATA [CACACA_site1270]	10.2
GTACATAGATTGTACATACACACCTATATAAATATC [CACACA_site3225]	9.88
AATATATGGTTCCATGATATTAAATTCAATTTAATG [CACACA_negctrl_site605]	9.47
TTTTTTTTGTTCTATACAATTATAAAAATAAAATAT [XGTACX_negctrl_site53]	9.06
AGTTGTTTTAATAATGCATGTTATTTTATTTTAATA [TGCATGCA_site168]	9.72
TATATATATAGACACACACACACATATATATATATA [CACACA_site9366]	10.7
GTATATATATATGTATATATTTTATTTTATTTTTAT [CACACA_negctrl_site1439]	9.64
TAGATATATAGACACACACACATTAATACCTATATT [CACACA_site7605]	10.7
